Results taken from article PMC4336329 (PLoS ONE, 2015).
In all, about 310,000 compounds went through this assay and about 14,000 (4.5%) showed an effect of 50% or more. Effects have a minus sign here. This is one part of the list.

Target: human ether-à-go-go-related gene (hERG) potassium channel (human, UniProt Q12809)
Assay: primary screen, population patch clamp on CHO cells stably expressing hERG
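Note: peak tail current of the secondary pulse compared with the same well before compound.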

Sequence of human ether-à-go-go-related gene (hERG) potassium channel (Q12809 whole entry, looked up): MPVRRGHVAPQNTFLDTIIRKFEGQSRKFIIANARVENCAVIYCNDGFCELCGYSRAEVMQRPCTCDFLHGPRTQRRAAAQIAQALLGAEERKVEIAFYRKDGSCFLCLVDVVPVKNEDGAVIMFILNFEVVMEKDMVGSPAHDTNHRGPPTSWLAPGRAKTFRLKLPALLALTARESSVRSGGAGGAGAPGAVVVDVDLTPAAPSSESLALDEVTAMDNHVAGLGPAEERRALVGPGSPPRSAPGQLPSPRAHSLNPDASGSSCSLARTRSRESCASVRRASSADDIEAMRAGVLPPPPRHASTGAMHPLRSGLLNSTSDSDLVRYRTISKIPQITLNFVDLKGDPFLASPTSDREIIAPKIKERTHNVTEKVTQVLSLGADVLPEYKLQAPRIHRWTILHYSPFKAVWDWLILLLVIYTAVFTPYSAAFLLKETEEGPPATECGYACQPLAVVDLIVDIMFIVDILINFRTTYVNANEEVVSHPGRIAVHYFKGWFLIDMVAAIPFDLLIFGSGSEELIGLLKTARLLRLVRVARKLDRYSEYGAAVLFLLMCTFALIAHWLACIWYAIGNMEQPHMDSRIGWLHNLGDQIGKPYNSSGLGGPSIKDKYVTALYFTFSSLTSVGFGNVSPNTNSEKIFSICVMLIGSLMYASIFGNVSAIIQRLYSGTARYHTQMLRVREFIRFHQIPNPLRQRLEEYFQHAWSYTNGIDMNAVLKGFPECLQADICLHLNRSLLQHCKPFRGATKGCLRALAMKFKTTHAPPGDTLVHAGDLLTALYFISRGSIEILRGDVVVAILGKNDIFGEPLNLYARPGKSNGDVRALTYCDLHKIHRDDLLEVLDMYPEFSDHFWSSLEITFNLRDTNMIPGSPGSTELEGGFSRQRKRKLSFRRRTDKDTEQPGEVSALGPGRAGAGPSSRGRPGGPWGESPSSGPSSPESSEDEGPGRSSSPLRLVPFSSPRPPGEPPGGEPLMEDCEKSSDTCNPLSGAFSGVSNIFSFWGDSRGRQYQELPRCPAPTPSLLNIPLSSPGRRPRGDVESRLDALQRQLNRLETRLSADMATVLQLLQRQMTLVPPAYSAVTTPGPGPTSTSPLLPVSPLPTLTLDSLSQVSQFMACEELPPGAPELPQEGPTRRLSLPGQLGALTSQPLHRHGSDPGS

Compound	hERG current change (%, negative = inhibition) at 10uM
O=C(CN1CCC(O)(c2ccc3c(c2)OCO3)CC1)NC1CCCCC1	3.07%
NS(=O)(=O)c1ccc(CCNC(=O)C(=O)C2C(=O)Nc3ccccc32)cc1 (stereo not shown)	-7.71%
CCn1c(-c2ccncc2)n[nH]c1=S	14.6%
CC(C)(C)CC(=O)Nc1cccc(-c2cn3cccnc3n2)c1	-18.1%
CCOC(=O)C1=NOC2COC3(CCN(c4ncccn4)CC3)OCC12 (stereo not shown)	8.23%
COc1ccccc1N(C)S(=O)(=O)c1ccc(C(=O)OCC(=O)N(C(C)C)C(C)C)cc1	-35.7%
O=C(CCc1ccccc1)Nc1ccc(F)c([N+](=O)[O-])c1	8.88%
CCOC(=O)N1CCN(c2cc(=O)n(-c3cccc(C)c3)c(=O)[nH]2)CC1	-10.7%
COc1ccc(CN2CCN(C(=O)CCC(=O)Nc3nnc(C4CCCCC4)s3)CC2)cc1F	-50.2%
CC(C)Nc1nnc(SC(C)C(=O)NCc2ccc3c(c2)OCO3)s1 (stereo not shown)	8.53%
COc1cccc(OCC(O)CN2CCN(c3ccccc3)CC2)c1 (stereo not shown)	-45.2%
CCOC(=O)c1sc2nc(SC)nc(-c3ccc(Cl)cc3)c2c1N	18.5%
O=C(CSC1=NS(=O)(=O)c2ccccc2N1)Nc1nccs1	6.97%
S=C(NC1CCCCC1)N1CCCCC1	12.8%
CCCNC(=O)CN(c1ccc(F)cc1)S(=O)(=O)c1ccc2c(c1)OCCO2	-1.52%
Cc1ccc(-c2csc3nc4c5ccccc5c(NCCCN(C)C)nn4c(=O)c23)cc1	-78%
CN(c1ccccc1)S(=O)(=O)c1cccc(NC(=O)c2cc3ccccc3oc2=O)c1	4.41%
OCCNc1nc(Cl)nc(NCc2ccco2)n1	8.89%
O=C(Cn1cnc2ccccc2c1=O)Nc1nnc(SCc2ccc(Cl)cc2)s1	10.9%
C=CCn1cccc(C(=O)Nc2ccc(N(C)C)cc2)c1=O	3.66%
COc1ccccc1Nc1nc2ccccc2[nH]1	-8.62%
COC(=O)C(CCSC)NC(=O)c1cccc([N+](=O)[O-])c1 (stereo not shown)	-12.1%
Cc1ccc(-n2cc3c(=O)n(C)c(=O)n(C)c3c2)cc1C	-6.21%
CC(=O)[C@@]1(O)C(C)CC2C3C=C(C)C4=Cc5c(cnn5-c5ccccc5)C[C@]4(C)C3C(O)C[C@@]21C (stereo partly shown)	2.48%
Cc1cc(C(=O)N/N=C/c2cccnc2)cs1	18.6%
